Measurements published in the supplement of paper PMC4967469.
IC50 is the fitted dose that halves viability relative to control wells, and lower means more sensitive; where the fit passes the top or lowest dose, that dose stands as a limit. AUC is the area under the same curve over the 256-fold range up to the top dose, as a fraction; values near 1 show little effect. For some assays here: A top dose marked as inferred was derived from the fitted curves, not read from the paper. For some assays here: Where an entry number is given, a second screen of the drug exists; the two often differ.

Tests used:
Experiment in all cases: Viability of human cancer cell lines after 72 h of drug (GDSC screen)
[1] = compound: Nc1ccn([C@@H]2O[C@H](CO)[C@@H](O)C2(F)F)c(=O)n1 [Gemcitabine]; settings: top dose 1.024 µM
Procedure: (§1)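 Human cancer cell lines in 384-well plates, medium with 10% serum, drug for 72 h over a 256-fold dose range (nine 2-fold or five 4-fold steps up to the top dose). Adherent lines were fixed and stained with the nucleic acid dye Syto60, suspension lines read with resazurin; signal relative to control wells, capped at 0 and 100%. One two-parameter sigmoid per drug and line, fitted in a mixed model over all curves with the slope shared within a line.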

[2] = compound: Cc1ccc(Nc2cc(-c3cccc(N4C(=O)c5ccccc5C4=O)c3)ncn2)cc1NS(C)(=O)=O [KIN001-270]; settings: top dose 20 µM; top dose inferred
Procedure: as §1

[3] = compound: S=C(NCc1ccc2c(c1)OCO2)N1CCN(c2ncnc3c2oc2ccccc23)CC1 [MP470]; settings: top dose 20 µM; top dose inferred
Procedure: as §1

[4] = compound: CCNC(=O)c1noc(-c2cc(C(C)C)c(O)cc2O)c1-c1ccc(CN2CCOCC2)cc1 [AUY922]; settings: top dose 0.256 µM; top dose inferred
Procedure: as §1

[5] = compound: CC(C)c1ccccc1Cc1cc(C(=O)Nc2ccc(S(=O)(=O)c3ccccc3C(C)(C)C)cc2)c(O)c(O)c1O [TW-37]; settings: top dose 5 µM
Procedure: as §1

[6] = compound: C/C(O)=C(\C#N)C(=O)Nc1cc(Br)ccc1Br [LFM-A13]; settings: top dose 16 µM; top dose inferred
Procedure: as §1

[7] = compound: Cc1cn(-c2cc(NC(=O)c3ccc(C)c(Nc4nccc(-c5cccnc5)n4)c3)cc(C(F)(F)F)c2)cn1 [Nilotinib]; settings: top dose 2 µM
Procedure: as §1

[8] = compound: CC(O)(CS(=O)(=O)c1ccc(F)cc1)C(=O)Nc1ccc(C#N)c(C(F)(F)F)c1 [Bicalutamide]; settings: top dose inferred
Procedure: as §1

[9] = compound: O=S(=O)(c1ccccc1)N(CC(F)(F)F)c1ccc(C(O)(C(F)(F)F)C(F)(F)F)cc1 [T0901317]; settings: top dose 10.24 µM; top dose inferred
Procedure: as §1

[10] = top dose 1.024 µM, screen: GDSC drug entry 150
[11] = top dose 10 µM, screen: GDSC drug entry 1502

CAL-51 (breast, adherent)
AUC [1]: 0.697
IC50 [1]: 209 nM
AUC [2]: 0.99
IC50 [2]: > 20000 nM
AUC [3]: 0.94
IC50 [3]: > 20000 nM
AUC [4]: 0.364
IC50 [4]: 7.14 nM
AUC [5]: 0.482
IC50 [5]: 280 nM
AUC [6]: 0.99
IC50 [6]: > 16000 nM
AUC [7]: 0.984
IC50 [7]: > 2000 nM
AUC [8, 10]: 0.99
IC50 [8, 10]: > 1020 nM
AUC [8, 11]: 0.976
IC50 [8, 11]: > 10000 nM
AUC [9]: 0.971
IC50 [9]: > 10200 nM

SJRH30 (rhabdomyosarcoma, adherent)
AUC [1]: 0.535
IC50 [1]: 80 nM
AUC [2]: 0.986
IC50 [2]: > 20000 nM
AUC [3]: 0.936
IC50 [3]: > 20000 nM
AUC [4]: 0.67
IC50 [4]: 48.4 nM
AUC [5]: 0.398
IC50 [5]: 163 nM
AUC [6]: 0.966
IC50 [6]: > 16000 nM
AUC [7]: 0.986
IC50 [7]: > 2000 nM
AUC [8, 10]: 0.985
IC50 [8, 10]: > 1020 nM
AUC [8, 11]: 0.977
IC50 [8, 11]: > 10000 nM
AUC [9]: 0.98
IC50 [9]: > 10200 nM

TT2609-C02 (thyroid, adherent)
AUC [1]: 0.103
IC50 [1]: < 4 nM
AUC [2]: 0.977
IC50 [2]: > 20000 nM
AUC [3]: 0.959
IC50 [3]: > 20000 nM
AUC [4]: 0.455
IC50 [4]: 12 nM
AUC [5]: 0.496
IC50 [5]: 304 nM
AUC [6]: 0.953
IC50 [6]: > 16000 nM
AUC [7]: 0.971
IC50 [7]: > 2000 nM
AUC [8, 10]: 0.968
IC50 [8, 10]: > 1020 nM
AUC [8, 11]: 0.985
IC50 [8, 11]: > 10000 nM
AUC [9]: 0.983
IC50 [9]: > 10200 nM

KYSE-140 (oesophagus, adherent)
AUC [1]: 0.377
AUC [2]: 0.959
IC50 [2]: > 20000 nM
AUC [3]: 0.956
IC50 [3]: > 20000 nM
AUC [4]: 0.459
IC50 [4]: 12.2 nM
AUC [5]: 0.474
IC50 [5]: 263 nM
AUC [6]: 0.984
IC50 [6]: > 16000 nM
AUC [7]: 0.97
IC50 [7]: > 2000 nM
AUC [8, 10]: 0.984
IC50 [8, 10]: > 1020 nM
AUC [9]: 0.984
IC50 [9]: > 10200 nM

H2722 (mesothelioma, adherent)
AUC [1]: 0.772
IC50 [1]: 470 nM
AUC [2]: 0.98
IC50 [2]: > 20000 nM
AUC [3]: 0.977
IC50 [3]: > 20000 nM
AUC [4]: 0.603
IC50 [4]: 32.4 nM
AUC [5]: 0.692
IC50 [5]: 1210 nM
AUC [6]: 0.951
IC50 [6]: > 16000 nM
AUC [7]: 0.984
IC50 [7]: > 2000 nM
AUC [8, 10]: 0.984
IC50 [8, 10]: > 1020 nM
AUC [8, 11]: 0.978
IC50 [8, 11]: > 10000 nM
AUC [9]: 0.984
IC50 [9]: > 10200 nM

MOG-G-CCM (glioma, adherent)
AUC [1]: 0.788
IC50 [1]: 532 nM
AUC [2]: 0.964
IC50 [2]: > 20000 nM
AUC [3]: 0.916
IC50 [3]: > 20000 nM
AUC [4]: 0.56
IC50 [4]: 24.1 nM
AUC [5]: 0.589
IC50 [5]: 570 nM
AUC [6]: 0.904
IC50 [6]: > 16000 nM
AUC [7]: 0.921
IC50 [7]: > 2000 nM
AUC [8, 10]: 0.983
IC50 [8, 10]: > 1020 nM
AUC [8, 11]: 0.965
IC50 [8, 11]: > 10000 nM
AUC [9]: 0.93
IC50 [9]: > 10200 nM

CAL-27 (head and neck, adherent)
AUC [1]: 0.25
IC50 [1]: 12 nM
AUC [2]: 0.979
IC50 [2]: > 20000 nM
AUC [3]: 0.899
IC50 [3]: > 20000 nM
AUC [4]: 0.57
IC50 [4]: 25 nM
AUC [5]: 0.395
IC50 [5]: 160 nM
AUC [6]: 0.976
IC50 [6]: > 16000 nM
AUC [7]: 0.955
IC50 [7]: > 2000 nM
AUC [8, 10]: 0.986
IC50 [8, 10]: > 1020 nM
AUC [8, 11]: 0.939
IC50 [8, 11]: > 10000 nM
AUC [9]: 0.97
IC50 [9]: > 10200 nM
